Measurements from patent US4228292A, “N-Substituted benzothiazolines and benzoxazolines and their use as herbicides and plant growth regulants” (Monsanto Company, priority 1978, dated 1980).
“And” between values parts separate entries of the source, which are not always exact repeats. Equal entries are not always repeated. At least one read-out could not be matched to a standard name with certainty. Some ranges recur; such a range may be that of the whole group of compounds.

What was measured:
Format in all cases: in vivo
[1] = system: Cocklebur; assay: pre-emergent herbicidal test; conditions: B, 4 WAT
[2] = system: Lambsquarters; assay: pre-emergent herbicidal test; conditions: E, 4 WAT
[3] = system: Quackgrass; assay: pre-emergent herbicidal test; conditions: H; 5.6 kg/h; 4 WAT
[4] = system: Downy Brome; assay: post-emergent herbicidal test; conditions: J
[5] = system: Smartweed; assay: post-emergent herbicidal test; conditions: F
[6] = system: Lambsquarters; assay: post-emergent herbicidal test; conditions: E
[7] = system: Nutsedge; assay: post-emergent herbicidal test; conditions: G, 4 WAT
[8] = system: Quackgrass; assay: post-emergent herbicidal test; conditions: H, 4 WAT
[9] = system: Johnson Grass; assay: post-emergent herbicidal test; conditions: I, 4 WAT
[10] = system: Downy Brome; assay: pre-emergent herbicidal test; conditions: J, 4 WAT
[11] = system: Morning Glory; assay: post-emergent herbicidal test; conditions: D
[12] = system: Morning Glory; assay: pre-emergent herbicidal test; conditions: D, 4 WAT
[13] = system: Johnson Grass; assay: pre-emergent herbicidal test; conditions: I; 5.6 kg/h; 4 WAT
[14] = system: Cocklebur; assay: post-emergent herbicidal test; conditions: B
[15] = system: Nutsedge; assay: pre-emergent herbicidal test; conditions: G; 5.6 kg/h; 4 WAT
[16] = system: Barnyard Grass; assay: post-emergent herbicidal test; conditions: K
[17] = system: Velvetleaf; assay: pre-emergent herbicidal test; conditions: C, 4 WAT
[18] = system: Velvetleaf; assay: post-emergent herbicidal test; conditions: C
[19] = system: Barnyard Grass; assay: pre-emergent herbicidal test; conditions: K, 4 WAT
[20] = system: Smartweed; assay: pre-emergent herbicidal test; conditions: F, 4 WAT
[21] = system: Canada Thistle; assay: pre-emergent herbicidal test; conditions: A; 5.6 kg/h; 4 WAT
[22] = system: Canada Thistle; assay: post-emergent herbicidal test; conditions: A; 11.2 kg/h; 4 WAT

Compound: COC(=N)Cn1c(=O)sc2ccccc21 [Compound 24]
- pre-emergent herbicidal rating ([1]; 1.12 kg/h): 2 (50-74)
- pre-emergent herbicidal rating ([1]; 5.6 kg/h): 3 (75-100)
- pre-emergent herbicidal rating ([2]; 1.12 kg/h): 1 (25-49)
- pre-emergent herbicidal rating ([2]; 5.6 kg/h): 3 (75-100)
- pre-emergent herbicidal rating [3]: 2 (50-74)
- post-emergent herbicidal rating ([4]; 0.056 kg/h, 2 WAT): 0 (0-24)
- post-emergent herbicidal rating ([4]; 0.28 kg/h, 4 WAT): 0 (0-24)
- post-emergent herbicidal rating ([4]; 1.12 kg/h, 4 WAT): 0 (0-24)
- post-emergent herbicidal rating ([4]; 5.6 kg/h, 4 WAT): 1 (25-49) and 2 (50-74)
- post-emergent herbicidal rating ([5]; 0.056 kg/h, 2 WAT): 0 (0-24)
- post-emergent herbicidal rating ([5]; 0.28 kg/h, 4 WAT): 1 (25-49)
- post-emergent herbicidal rating ([5]; 1.12 kg/h, 4 WAT): 3 (75-99)
- post-emergent herbicidal rating ([5]; 5.6 kg/h, 4 WAT): 4 (100)
- post-emergent herbicidal rating ([6]; 0.056 kg/h, 2 WAT): 1 (25-49)
- post-emergent herbicidal rating ([6]; 0.28 kg/h, 4 WAT): 2 (50-74)
- post-emergent herbicidal rating ([6]; 1.12 kg/h, 4 WAT): 4 (100)
- post-emergent herbicidal rating ([6]; 5.6 kg/h, 4 WAT): 4 (100)
- post-emergent herbicidal rating ([7]; 5.6 kg/h): 0 (0-24)
- post-emergent herbicidal rating ([8]; 5.6 kg/h): 0 (0-24)
- post-emergent herbicidal rating ([9]; 5.6 kg/h): 1 (25-49)
- pre-emergent herbicidal rating ([10]; 1.12 kg/h): 0 (0-24)
- pre-emergent herbicidal rating ([10]; 5.6 kg/h): 0 (0-24)
- post-emergent herbicidal rating ([11]; 0.056 kg/h, 2 WAT): 1 (25-49)
- post-emergent herbicidal rating ([11]; 0.28 kg/h, 4 WAT): 2 (50-74)
- post-emergent herbicidal rating ([11]; 1.12 kg/h, 4 WAT): 2 (50-74)
- post-emergent herbicidal rating ([11]; 5.6 kg/h, 4 WAT): 2 (50-74) and 3 (75-99)
- pre-emergent herbicidal rating ([12]; 1.12 kg/h): 1 (25-49)
- pre-emergent herbicidal rating ([12]; 5.6 kg/h): 2 (50-74)
- pre-emergent herbicidal rating [13]: 0 (0-24)
- post-emergent herbicidal rating ([14]; 0.056 kg/h, 2 WAT): 1 (25-49)
- post-emergent herbicidal rating ([14]; 0.28 kg/h, 4 WAT): 2 (50-74)
- post-emergent herbicidal rating ([14]; 1.12 kg/h, 4 WAT): 4 (100)
- post-emergent herbicidal rating ([14]; 5.6 kg/h, 4 WAT): 4 (100)
- pre-emergent herbicidal rating [15]: 0 (0-24)
- post-emergent herbicidal rating ([16]; 0.056 kg/h, 2 WAT): 0 (0-24)
- post-emergent herbicidal rating ([16]; 0.28 kg/h, 4 WAT): 0 (0-24)
- post-emergent herbicidal rating ([16]; 1.12 kg/h, 4 WAT): 0 (0-24)
- pre-emergent herbicidal rating ([17]; 1.12 kg/h): 1 (25-49)
- pre-emergent herbicidal rating ([17]; 5.6 kg/h): 2 (50-74)
- post-emergent herbicidal rating ([18]; 0.056 kg/h, 2 WAT): 1 (25-49)
- post-emergent herbicidal rating ([18]; 0.28 kg/h, 4 WAT): 2 (50-74)
- post-emergent herbicidal rating ([18]; 1.12 kg/h, 4 WAT): 2 (50-74)
- post-emergent herbicidal rating ([18]; 5.6 kg/h, 4 WAT): 3 (75-99) and 4 (100)
- pre-emergent herbicidal rating ([19]; 1.12 kg/h): 0 (0-24)
- pre-emergent herbicidal rating ([19]; 5.6 kg/h): 0 (0-24)
- pre-emergent herbicidal rating ([20]; 1.12 kg/h): 1 (25-49)
- pre-emergent herbicidal rating ([20]; 5.6 kg/h): 2 (50-74) and 3 (75-100)
- pre-emergent herbicidal rating [21]: 3 (75-100)

Compound: COC(=N)C(C)n1c(=O)sc2ccccc21 (centres unmarked) [Compound 32]
- post-emergent herbicidal rating ([4]; 11.2 kg/h, 4 WAT): 0 (0-24)
- post-emergent herbicidal rating ([5]; 11.2 kg/h, 4 WAT): 2 (50-74)
- post-emergent herbicidal rating ([6]; 11.2 kg/h, 4 WAT): 3 (75-99)
- post-emergent herbicidal rating ([7]; 11.2 kg/h): 0 (0-24)
- post-emergent herbicidal rating ([8]; 11.2 kg/h): 0 (0-24)
- post-emergent herbicidal rating ([9]; 11.2 kg/h): 0 (0-24)
- post-emergent herbicidal rating ([11]; 11.2 kg/h, 4 WAT): 1 (25-49)
- post-emergent herbicidal rating ([14]; 11.2 kg/h, 4 WAT): 1 (25-49)
- post-emergent herbicidal rating ([16]; 11.2 kg/h, 4 WAT): 0 (0-24)
- post-emergent herbicidal rating ([18]; 11.2 kg/h, 4 WAT): 1 (25-49)
- post-emergent herbicidal rating [22]: 1 (25-49)
